In PubChem BioAssay (NCI) one finds TGI and GI50 data, which are given here for four compounds.

Some test systems named below: OVCAR-5 ovarian; SNB-19 CNS; OVCAR-4 ovarian; CCRF-CEM leukemia; A549 NSCLC; HS 578T breast; A498 renal; NCI-H522 lung; MOLT-4 leukemia; RPMI-8226 leukemia; NCI-H23 lung; LOX IMVI melanoma; M14 melanoma; UO-31 renal; MCF7 breast; SK-OV-3 ovarian; SN12C renal; HCT-116 colon; HOP-62 NSCLC; SR leukemia; HCC-2998 colon; HL-60(TB) leukemia; COLO 205 colon; KM20L2 colon; NCI/ADR-RES ovarian; HOP-92 NSCLC; XF 498 CNS; MALME-3M melanoma; EKVX NSCLC; OVCAR-3 ovarian; NCI-H226 lung; RXF 393 renal; CAKI-1 renal; T-47D breast; UACC-62 melanoma; SF-268 CNS; K-562 leukemia; SK-MEL-5 melanoma; MDA-MB-435; MDA-N; UACC-257 melanoma; PC-3 prostate; SW-620 colon; KM12 colon; DU-145 prostate; NCI-H460 lung; SF-295 CNS; SNB-75 CNS; HT29 colon.

What all share (experiment): NCI-60 cell line screen, 48 h

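Cells were grown in 96-well plates and exposed to each compound for 48 hours at five concentrations; endpoints were interpolated linearly between bracketing concentrations, or set to the highest concentration if not reached. The concentration for 50% growth inhibition is given as GI50.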 Certain results were filed several times, with different values. The list is limited to them. There may be further records. For some assays here: The tests behind the records often covered other concentration ranges, not given here; a value can be the end of its range. For some assays here: The values listed for one entry repeat one measurement across runs, samples, wells, individuals or studies. Marks in square brackets tell the records apart. Letters hold for one entry only.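 TGI: total growth inhibition.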 A value given as a limit tells only on which side of the number the result lay.

`Nc1ccn([C@@H]2C=C(CO)[C@@H](O)[C@H]2O)c(=O)n1`: the TGI in the assay on OVCAR-5 ovarian was 4.19 µM and 335 µM; in the assay on OVCAR-4 ovarian, > 625 µM [1 test] and 6.78 µM [mean of 4 tests] and 162 µM [mean of 8 tests]; with A549 NSCLC it was 7.31 µM, 89.4 µM, > 625 µM; with HS 578T breast it was 9.51 µM and 422 µM; in the assay with A498 renal, 4.19 µM and 315 µM; with NCI-H522 lung it was 6.15 µM and 326 µM. Moreover, the TGI is 586 nM and 12.3 µM in the assay with MOLT-4 leukemia; 45.2 µM [1 test] and 135 µM [mean of 10 tests] and 5.96 µM [mean of 3 tests] with RPMI-8226 leukemia; 6.22 µM and 387 µM in the assay with NCI-H23 lung; 3.44 µM, 42.5 µM, 1.13 µM in the assay on LOX IMVI melanoma; 8.31 µM and 500 µM in the assay on M14 melanoma; 7.49 µM, 242 µM, 114 µM in the assay with UO-31 renal. The TGI is 7.07 µM, 486 µM, > 625 µM with MCF7 breast; 4.38 µM, 130 µM, 4.53 µM in the assay on SK-OV-3 ovarian; 3.88 µM, 500 µM, 587 nM with SN12C renal; 3.16 µM, 38.8 µM, 1.89 µM in the assay on HCT-116 colon; 92.5 µM and 511 nM in the assay on HOP-62 NSCLC; 3.22 µM and 500 µM in the assay with SR leukemia. Further, the TGI in the assay with HCC-2998 colon is 2.7 µM, 500 µM, > 625 µM; in the assay on HL-60(TB) leukemia it was 4.4 µM, 44.1 µM, > 625 µM; in the assay on COLO 205 colon it was 5.86 µM and 195 µM; with NCI/ADR-RES ovarian, 1.53 µM, 272 µM, 180 µM; in the assay with HOP-92 NSCLC, 2.45 µM, 25.1 µM, 9.16 µM; with XF 498 CNS it was 204 µM and < 62.5 nM. Further, the TGI with MALME-3M melanoma is 493 µM and 5.19 µM. The GI50 with SNB-19 CNS was 68.9 nM [1 test] and 2.78 µM [mean of 2 tests]; in the assay with CCRF-CEM leukemia, 278 µM [1 test] and 31.6 nM [mean of 4 tests]; in the assay with HL-60(TB) leukemia, 62.5 nM [1 test] and 6.04 nM [mean of 3 tests]; with KM20L2 colon, 62.5 nM [1 test] and 5 nM [mean of 2 tests].
As for `CCNc1nc(N2CC(=O)Nc3cc(OC)ccc32)c2ccccc2n1`, the GI50 in the assay on OVCAR-4 ovarian is 0.955 nM and 798 nM; in the assay with EKVX NSCLC, 0.556 nM and 22.3 nM; in the assay on UO-31 renal, 8.06 nM and 214 nM; in the assay with NCI-H226 lung it was 3.02 nM and 1.18 µM. Further, the TGI in the assay on A498 renal is 8.29 nM and 82.7 µM; in the assay on OVCAR-3 ovarian it was 3.94 nM and 3.27 µM; in the assay with HCC-2998 colon, 9.38 nM and 1.4 µM; in the assay on RXF 393 renal it was 8.25 nM and > 100 µM.
Take `O=C1C=CC2(C=C1)CCN=c1c(O)c3c(c(O)c12)=NC=N3`: the GI50 was 8.7 µM [sample A, mean of 2 tests] and > 100 µM [sample B, 1 test] in the assay with CAKI-1 renal; 7.53 µM [sample A, mean of 2 tests] and > 100 µM [sample B, 1 test] in the assay with CCRF-CEM leukemia; 9.17 µM [sample A, mean of 2 tests] and > 100 µM [sample B, 1 test] in the assay on HS 578T breast; 5.89 µM [sample A, mean of 2 tests] and > 100 µM [sample B, 1 test] in the assay on NCI-H522 lung; 8.19 µM [sample A, mean of 2 tests] and > 100 µM [sample B, 1 test] in the assay with T-47D breast; 3.08 µM [sample A, mean of 2 tests] and > 100 µM [sample B, 1 test] in the assay on NCI-H23 lung. The GI50 in the assay with LOX IMVI melanoma was 3.57 µM [sample A, mean of 2 tests] and > 100 µM [sample B, 1 test]; with UACC-62 melanoma, 2.69 µM [sample A, mean of 2 tests] and > 100 µM [sample B, 1 test]; in the assay with HCT-116 colon, 8.85 µM [sample A, mean of 2 tests] and > 100 µM [sample B, 1 test]; in the assay on SF-268 CNS, 9.82 µM [sample A, mean of 2 tests] and > 100 µM [sample B, 1 test]; with K-562 leukemia it was 5.29 µM [sample A, mean of 2 tests] and > 100 µM [sample B, 1 test]; in the assay with MDA-MB-435 it was 2.03 µM [sample A, mean of 2 tests] and > 100 µM [sample B, 1 test]. For the same compound, the GI50 was 1.82 µM [sample A, mean of 2 tests] and > 100 µM [sample B, 1 test] in the assay with MDA-N; 9.59 µM [sample A, mean of 2 tests] and > 100 µM [sample B, 1 test] with UACC-257 melanoma. Also, the TGI was 6.33 µM [sample A, mean of 2 tests] and > 100 µM [sample B, 1 test] in the assay on UACC-62 melanoma; 7.07 µM [sample A, mean of 2 tests] and > 100 µM [sample B, 1 test] with SK-MEL-5 melanoma; 3.52 µM [sample A, mean of 2 tests] and > 100 µM [sample B, 1 test] with MDA-MB-435; 3.31 µM [sample A, mean of 2 tests] and > 100 µM [sample B, 1 test] with MDA-N.
As for `COC(=O)[C@@H](C)C[C@H](Cc1ccccc1)NC(=O)c1csc([C@@H](C[C@H](C(C)C)N(C)C(=O)[C@@H](NC(=O)[C@H]2CCCCN2C)C(C)C)OC(C)=O)n1`, the GI50 in the assay on SNB-19 CNS was 0.494 nM and 2.37 µM; with OVCAR-4 ovarian, 0.289 nM and 3.62 µM; with PC-3 prostate, < 0.1 nM and 2.5 nM; in the assay on SW-620 colon it was 0.234 nM and 2.5 nM; in the assay on KM12 colon it was < 0.1 nM and 2.5 nM; in the assay with DU-145 prostate, < 0.1 nM and 2.5 nM. Moreover, the GI50 was < 0.1 nM and 2.5 nM with NCI-H460 lung; 0.137 nM and 2.5 nM with RPMI-8226 leukemia; < 0.1 nM and 2.5 nM in the assay on MCF7 breast; 0.243 nM and 2.5 nM with SK-OV-3 ovarian; 0.121 nM and 2.5 nM in the assay with UACC-62 melanoma; 0.181 nM and 2.5 nM with HCT-116 colon. In addition, the GI50 with SF-295 CNS was 0.219 nM and 2.5 nM; with K-562 leukemia it was 0.205 nM and 2.5 nM; in the assay with SR leukemia, < 0.1 nM and 2.5 nM; in the assay with SNB-75 CNS, 0.222 nM and 2.5 nM; in the assay with HT29 colon, < 0.1 nM and 2.5 nM. Besides, the TGI in the assay with DU-145 prostate is 1.25 nM and > 25 µM; in the assay on HOP-92 NSCLC, 450 nM and < 2.5 nM.
